# Results reported in PubChem BioAssay (NCATS).
# Several values for one entry are separate records, joined by “and”; a condition that tells them apart may be missing. Identical values can stand only once. Inconclusive means that the source gave no clear call. Such entries were picked first, then a sample of the others. For some of these results: Potencies of inconclusive entries are doubtful fits and often do not repeat. For some of these results: “Side channel” marks fits to a control or component signal instead of the main read-out. Activity calls are given as the source filed them. Unless noted, the call rests on the fitted dose curve; in most records, active means well fitted curve in the direction sought with a large enough effect; inconclusive means small, poorly fitted or top-dose-only effect, or another doubt; inactive means no such curve, though single readings can be large; an effect the other way counts as inactive or inconclusive.
# Assays:
# [1] = qHTS assay to identify small molecule inhibitors of chordoma cells - UCH-1 (AID 1259355); further: potency means the concentration at half of the fitted maximal effect; series mostly up to about 46 µM; nearly all actives have a fitted effect of over 55% in size
# How it was run: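 Cells (800/well) were seeded and left overnight at 37 C, 5% CO2, then treated with drugs at 15 concentrations plus a combination mix of auranofin, camptothecin, doxorubicin, rubitecan and topotecan. Viability after 48hr was read by CellTiter-Glo luminescence.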
# [2] = qHTS assay to identify small molecule inhibitors of chordoma cells - UCH-2 (AID 1259356); further: potency means the concentration at half of the fitted maximal effect
# [3] = P-glycoprotein substrates identified in KB-8-5-11 adenocarcinoma cell line, qHTS therapeutic library screen (AID 1346987); further: potency means the concentration at half of the fitted maximal effect; nearly all actives have a fitted effect of over 65% in size
# How it was run: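 Steps: plate 500 KB-8-5-11 cells/well in DMEM + 10% FCS (colchicine removed); pin compounds in dose-response; incubate 72 h, 37 degree C, 5% CO2; add CellTiter-Glo, 5 min; read luminescence.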
# [4] = NS1 protein of Zika virus - qHTS assay to identify small molecule inhibitors in human HEK 293 cells (AID 1347053); further: potency means the concentration at half of the fitted maximal effect; nearly all actives have a fitted effect of over 55% in size
# How it was run: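 HEK 293; 20 h pre-culture, 37 C/5% CO2; cpd 1 h pre-infection; ZIKV MR766, MOI = 0.5, 24 h, 37 C; TR-FRET NS1 readout (two anti-NS1 Abs); norm. to no-virus vs infected.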
# [5] = qHTS assay for cell viability of the p53RE-bla HCT-116 cell line (AID 743292); further: on the % scale 0 is the no-effect control and ±100 the full control effect; nearly all actives have a fitted effect of over 55% in size
# How it was run: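 Viability of compound-treated p53RE-bla HCT-116 cells is taken from ATP-dependent luciferase luminescence. Treatment lasts 16 h at 37 C after a 5 h settling period; detection follows 30 min at room temperature.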
# [6] = qHTS assay for cell viability of HEK293 cells (AID 743288); details: ATP luminescence (CellTiter-Glo), 18 h; further: potency means the concentration at half of the fitted maximal effect; nearly all actives have a fitted effect of over 50% in size
# How it was run: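 Parental HEK293 cells, 2,000 per well, preincubated at least 5 h at 37 C, then exposed to compounds in DMSO for 18 h at 37 C. Viability by CellTiter-Glo ATP luminescence after 30 min at room temperature.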
# [7] = qHTS Assay for Identifying Gametocytocidal Compounds (AID 743244); further: potency means the concentration at half of the fitted maximal effect; details: P. falciparum 3D7 stage III-V gametocytes, alamarBlue, 72 h; max response: stronger effect = lower value
# How it was run: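 P. falciparum 3D7 stage III–V gametocytes (20,000 cells/well) were exposed to compounds for 72 h at 37 °C, 5% CO2. AlamarBlue was then added for 24 h; decreased resorufin fluorescence (Ex 525/Em 598 nm) indicated loss of viability.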
# [8] = Natriuretic polypeptide receptor (hNpr1) antagonism - Pilot counterscreen GloSensor control cell line (AID 1347045; calls by dose curve; further: potency means the concentration at half of the fitted maximal effect)
# How it was run: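 Luminescence was read before and 20 min after adding 50 uM SNP, which stimulates soluble guanylyl cyclase. The HEK293 cells expressing the GloSensor cGMP sensor had been preloaded with 2% reagent for 2 h and treated with compound.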
# [9] = molecular target: Atrial natriuretic peptide receptor 2 (Homo sapiens) (UniProt P20594); test: Natriuretic polypeptide receptor (hNpr2) antagonism - Pilot subtype selectivity assay (AID 1347050; calls by dose curve; further: on the % scale 0 is the no-effect control and ±100 the full control effect)
# How it was run: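 HEK293 cells expressing hNpr2 and a GloSensor cGMP luciferase sensor, 1500/well, preloaded 2 h with 2% GloSensor reagent, compound 30 min, then 1 nM hNppC for 20 min. Antagonism from luminescence after versus baseline pre-read; LOPAC in 1:5 titrations.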
# [10] = molecular target: T1, Tyrosine-protein phosphatase non-receptor type substrate 1 (Homo sapiens) + Leukocyte surface antigen CD47 (Homo sapiens) (UniProt P78324+Q08722); test: CD47-SIRPalpha protein protein interaction - LANCE assay qHTS validation (AID 1347057; active means well fitted curve in the direction sought with a large enough effect in the signal ratio, with a control signal flat, not every such curve was filed as active; inconclusive means small, poorly fitted or top-dose-only effect, or effect the other way, or a change in a side signal; inactive means no such curve, though single readings can be large or run the other way; the % refers to the signal ratio; further: potency means the concentration at half of the fitted maximal effect)
# How it was run: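 First, His-tagged CD47 and Eu-labelled anti-His antibody met the compound for 30 min; next, site-specifically biotinylated SIRPalpha was added for 30 min; finally streptavidin-APC was added before reading the TR-FRET ratio.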
# [11] = molecular target: T1, Tyrosine-protein phosphatase non-receptor type substrate 1 (Homo sapiens) + Leukocyte surface antigen CD47 (Homo sapiens); test: CD47-SIRPalpha protein protein interaction - HTRF assay qHTS validation (AID 1347058; active means well fitted curve in the direction sought with a large enough effect in the signal ratio, not every such curve was filed as active; inconclusive means small, poorly fitted or top-dose-only effect, or effect the other way, or a change in a side signal; inactive means no such curve, though single readings can be large or run the other way; the % refers to the signal ratio; further: potency means the concentration at half of the fitted maximal effect)
# How it was run: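 TR-FRET read (Ch1/Ch2 ratio) of soluble extracellular CD47 and Avi-biotinylated SIRPalpha domains in PBS pH 7.4 with 0.05% IGEPAL; 7-point compound titration. Sequential 30 min room-temperature steps; non-biotinylated SIRPalpha as control inhibitor.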
# [12] = qHTS assay for small molecule agonists of the antioxidant response element (ARE) signaling pathway measured by Nrf2-dependant transcriptional activity - cell viability counter screen (AID 720653; active means well fitted curve in the direction sought with a large enough effect in the repeat runs; inconclusive means weak or mixed curves; inactive means no such curve, though single readings can be large; an effect the other way counts as inactive or inconclusive; further: on the % scale 0 is the no-effect control and ±100 the full control effect); details: ARE-bla HepG2 viability, CellTiter-Glo ATP luminescence, 16 h; max response: stronger effect = lower value
# How it was run: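 ARE-bla HepG2 cells treated with compounds for 16 h at 37C; this counter screen measures viability as intracellular ATP by CellTiter-Glo luminescence after 30 min at room temperature.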
# Tags describe the fitted curve by direction and shape.
# T1 sequence (P78324 whole entry, looked up): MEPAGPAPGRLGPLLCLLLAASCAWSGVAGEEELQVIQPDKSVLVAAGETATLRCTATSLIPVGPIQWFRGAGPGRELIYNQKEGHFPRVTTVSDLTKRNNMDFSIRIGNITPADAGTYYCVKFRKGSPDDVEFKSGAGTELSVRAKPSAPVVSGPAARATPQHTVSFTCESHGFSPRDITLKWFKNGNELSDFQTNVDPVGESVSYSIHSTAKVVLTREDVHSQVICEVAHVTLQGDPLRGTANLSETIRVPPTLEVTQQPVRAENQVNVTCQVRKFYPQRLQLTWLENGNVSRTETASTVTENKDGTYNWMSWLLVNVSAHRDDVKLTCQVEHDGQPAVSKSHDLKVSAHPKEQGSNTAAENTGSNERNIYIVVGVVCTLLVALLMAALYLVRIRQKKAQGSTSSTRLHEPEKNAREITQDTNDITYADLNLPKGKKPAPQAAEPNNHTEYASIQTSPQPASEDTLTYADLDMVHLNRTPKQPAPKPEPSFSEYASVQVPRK
# T1 sequence (Q08722 whole entry, looked up): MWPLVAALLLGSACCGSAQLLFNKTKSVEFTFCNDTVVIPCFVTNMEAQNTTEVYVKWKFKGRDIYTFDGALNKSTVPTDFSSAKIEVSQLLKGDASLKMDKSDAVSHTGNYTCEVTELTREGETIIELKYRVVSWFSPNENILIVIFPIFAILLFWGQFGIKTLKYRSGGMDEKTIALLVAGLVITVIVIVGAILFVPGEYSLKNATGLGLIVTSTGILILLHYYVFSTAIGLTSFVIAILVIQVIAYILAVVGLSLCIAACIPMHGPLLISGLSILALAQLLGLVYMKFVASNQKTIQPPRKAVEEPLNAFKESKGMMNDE
# Sequence of UniProt P20594 (P20594 whole entry, looked up): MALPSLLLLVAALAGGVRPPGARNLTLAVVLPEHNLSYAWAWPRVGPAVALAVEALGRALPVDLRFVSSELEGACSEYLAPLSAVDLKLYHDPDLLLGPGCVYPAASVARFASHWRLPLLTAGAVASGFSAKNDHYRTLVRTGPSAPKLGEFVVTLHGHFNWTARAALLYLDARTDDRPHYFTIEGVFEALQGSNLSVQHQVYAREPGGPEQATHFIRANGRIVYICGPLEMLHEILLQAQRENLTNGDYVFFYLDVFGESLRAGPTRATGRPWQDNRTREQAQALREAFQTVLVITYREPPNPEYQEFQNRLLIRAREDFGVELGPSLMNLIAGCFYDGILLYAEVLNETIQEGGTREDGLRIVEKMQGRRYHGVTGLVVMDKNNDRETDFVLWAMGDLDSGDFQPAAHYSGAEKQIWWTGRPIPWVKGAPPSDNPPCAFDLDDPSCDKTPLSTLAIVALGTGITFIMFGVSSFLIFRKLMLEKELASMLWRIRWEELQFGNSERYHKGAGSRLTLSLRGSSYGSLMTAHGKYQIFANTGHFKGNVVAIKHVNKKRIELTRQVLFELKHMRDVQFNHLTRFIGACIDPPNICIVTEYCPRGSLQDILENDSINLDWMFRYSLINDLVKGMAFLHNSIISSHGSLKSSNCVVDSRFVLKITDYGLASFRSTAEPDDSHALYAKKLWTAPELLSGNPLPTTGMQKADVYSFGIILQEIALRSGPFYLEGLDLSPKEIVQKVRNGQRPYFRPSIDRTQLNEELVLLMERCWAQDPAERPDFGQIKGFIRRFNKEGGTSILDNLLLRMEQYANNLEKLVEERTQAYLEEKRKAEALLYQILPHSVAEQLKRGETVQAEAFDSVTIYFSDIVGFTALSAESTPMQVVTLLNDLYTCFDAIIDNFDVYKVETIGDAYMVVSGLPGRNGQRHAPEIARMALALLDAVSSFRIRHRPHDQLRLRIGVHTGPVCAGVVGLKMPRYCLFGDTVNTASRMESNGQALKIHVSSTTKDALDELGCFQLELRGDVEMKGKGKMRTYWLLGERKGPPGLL
structure (smiles),measurement,setting,value
CC[C@@H](C(=O)O)[C@@H]1O[C@@H]([C@@H](C)[C@H](O)[C@H](C)C(=O)[C@H](CC)[C@H]2O[C@]3(C=C[C@@H](O)[C@]4(CC[C@@](C)([C@H]5CC[C@](O)(CC)[C@H](C)O5)O4)O3)[C@H](C)C[C@@H]2C)[C@@H](C)C[C@@H]1C,Potency,[1],active: 3.55 µM
same,Potency,[2],active: 8.2 µM
same,Potency,[3],active: 2.31 µM
CN(C)c1ccc(C(=C2C=CC(=[N+](C)C)C=C2)c2c(O)c(S(=O)(=O)[O-])cc3cc(S(=O)(=O)O)ccc23)cc1,Potency,[1],active: 14.1 µM
same,Potency,[2],active: 20.6 µM
same,Potency,[3],"inconclusive: 9.2 µM [inhibitor, partial curve]"
CCCCCCCCCCCCCCCC[n+]1ccccc1,Potency,[1],"inconclusive: 25.1 µM [cytotoxic, partial curve, poor fit]"
same,Potency,[2],"inconclusive: 25.9 µM [cytotoxic, partial curve, poor fit]"
same,Potency,[3],"inconclusive: 6.51 µM [inhibitor, partial curve]"
same,Potency,[4],"inconclusive: 35.5 µM [inhibitor, single point]"
C[n+]1c2cc(N)ccc2cc2ccc(N)cc21 (tested in a mixture with another compound),Potency,[1],active: 15.8 µM
same,Potency,[2],"inconclusive: 14.6 µM [cytotoxic, partial curve]"
same,Potency,[3],"inconclusive: 13 µM [inhibitor, partial curve, poor fit]"
same,Potency,[4],"inconclusive: 35.5 µM [inhibitor, single point]"
CCN1\C(=C/C=C/C=C/c2sc3ccccc3[n+]2CC)Sc2ccccc21,Potency,[1],active: 14.1 µM
same,Potency,[2],active: 18.3 µM
same,Potency,[3],"active: 16.4 µM and inconclusive: 20.6 µM [inhibitor, single point]"
O=S(=O)(O)c1cc(O)c2c(N=Nc3ccc(Nc4ccccc4)c4c(S(=O)(=O)O)cccc34)cc(S(=O)(=O)O)cc2c1,Potency,[1],active: 15.8 µM
same,Potency,[2],"inconclusive: 20.6 µM [cytotoxic, partial curve]"
same,Potency,[3],"inconclusive: 29.1 µM [inhibitor, single point]"
CC(=O)O[C@H]1C(=O)[C@@]2(C)[C@H]([C@H](OC(=O)c3ccccc3)[C@]3(O)C[C@H](OC(=O)[C@H](O)[C@@H](NC(=O)c4ccccc4)c4ccccc4)C(C)=C1C3(C)C)[C@]1(OC(C)=O)CO[C@@H]1C[C@@H]2O,Potency,[5],inactive
same,Potency,[1],"inconclusive: 0.158 µM [cytotoxic, full curve, poor fit]"
same,Potency,[2],"inconclusive: 0.116 µM [cytotoxic, full curve, poor fit]"
same,Potency,[3],"inconclusive: 23.1 µM [inhibitor, single point] and active: 873 nM"
O=C1NCN(c2ccccc2)C12CCN(CCCC(c1ccc(F)cc1)c1ccc(F)cc1)CC2,Potency,[1],active: 31.6 µM
same,Potency,[2],active: 25.9 µM
same,Potency,[4],"inconclusive: 35.5 µM [inhibitor, single point]"
O=C(Nc1ccc(Cl)cc1)Nc1ccc(Cl)c(Cl)c1,Potency,[6],"inconclusive: 25.1 µM [cytotoxic, full curve]"
same,Potency,[1],"inconclusive: 42.2 µM [cytotoxic, partial curve, poor fit]"
same,Potency,[2],"inconclusive: 11.6 µM [cytotoxic, full curve, poor fit]"
same,Potency,[3],active: 6.51 µM
COC(=O)[C@H]1[C@H]2C[C@@H]3c4[nH]c5ccccc5c4CCN3C[C@H]2C[C@@H](OC(=O)c2cc(OC)c(OC)c(OC)c2)[C@@H]1OC,Potency,[1],active: 10 µM
same,Potency,[2],"inconclusive: 25.9 µM [cytotoxic, single point]"
same,Potency,[3],"inconclusive: 29.1 µM [inhibitor, single point]"
O=[N+]([O-])c1ccc(O)c2ncccc12,Potency,[7],active: 8.91 µM
same,Potency,[1],"inconclusive: 8.91 µM [cytotoxic, partial curve, poor fit]"
same,Potency,[2],"inconclusive: 23.1 µM [cytotoxic, partial curve, poor fit]"
same,Potency,[3],"inconclusive: 5.17 µM [inhibitor, full curve]"
same,Potency,[4],active: 6.31 µM
C1CCC(C(CC2CCCCN2)C2CCCCC2)CC1 (configuration not stated),Potency,[1],active: 31.6 µM
same,Potency,[2],"inconclusive: 29.1 µM [cytotoxic, single point]"
same,Potency,[4],active: 10 µM and active: 11.8 µM
CC(=O)[C@]1(O)Cc2c(O)c3c(c(O)c2[C@@H](O[C@H]2C[C@H](N)[C@H](O)[C@H](C)O2)C1)C(=O)c1ccccc1C3=O,Potency,[1],active: 0.794 µM
same,Potency,[2],active: 1.16 µM
same,Potency,[3],active: 4.11 µM
same,Potency,[8],"inconclusive: 18.5 µM [inhibitor, single point]"
same,Potency,[9],inactive
same,Potency,[4],"inconclusive: 7.08 µM [inhibitor, full curve, poor fit]"
same,Potency,[10],"inconclusive: 18.5 µM [side channel, falling, partial curve]"
same,Potency,[11],"inconclusive: 5.85 µM [side channel, falling, partial curve]"
CN1CCC(Nc2ncc3ncnc(Nc4ccc(F)c(Cl)c4)c3n2)CC1,Potency,[7],"inconclusive: 17.8 µM [inhibitor, single point]"
same,Potency,[1],"inconclusive: 1.26 µM [cytotoxic, full curve]"
same,Potency,[2],"inconclusive: 29.1 µM [cytotoxic, single point]"
same,Potency,[3],"inconclusive: 25.9 µM [inhibitor, single point]"
same,Potency,[4],"inconclusive: 35.5 µM [inhibitor, single point]"
CCNC(=O)[C@@H]1CCCN1C(=O)[C@H](CCCN=C(N)N)NC(=O)[C@H](CC(C)C)NC(=O)[C@@H](Cc1c[nH]c2ccccc12)NC(=O)[C@H](Cc1ccc(O)cc1)NC(=O)[C@H](CO)NC(=O)[C@H](Cc1c[nH]c2ccccc12)NC(=O)[C@H](Cc1cnc[nH]1)NC(=O)[C@@H]1CCC(=O)N1,Potency,[1],active: 31.6 µM
same,Potency,[2],active: 18.3 µM
same,Potency,[3],active: 8.2 µM
C[C@@]12C(=O)OC(=O)[C@]1(C)C1CCC2O1,Potency,[1],active: 0.501 µM
same,Potency,[2],active: 0.698 µM
same,Potency,[4],"inconclusive: 3.98 µM [inhibitor, full curve, poor fit]"
CC1=CC(=C(c2ccc(N)cc2)c2ccc(N)cc2)C=CC1=N,Potency,[1],active: 15.8 µM
same,Potency,[2],active: 14.6 µM
same,Potency,[3],active: 14.6 µM
COc1cc(NS(C)(=O)=O)ccc1Nc1c2ccccc2nc2ccccc12,Potency,[7],active: 6.31 µM
same,Potency,[1],active: 28.2 µM
same,Potency,[2],"inconclusive: 20.6 µM [cytotoxic, partial curve]"
same,Potency,[3],"inconclusive: 18.4 µM [inhibitor, single point]"
same,Potency,[8],"inconclusive: 26.1 µM [inhibitor, single point]"
same,Potency,[4],"inconclusive: 4.47 µM [inhibitor, full curve, poor fit]"
same,Potency,[10],"inconclusive: 13.1 µM [side channel, falling, partial curve]"
same,Potency,[11],"inconclusive: 14.7 µM [rising, partial curve]"
CCCCC(=O)OCC(=O)[C@]1(O)Cc2c(O)c3c(c(O)c2[C@@H](O[C@H]2C[C@H](NC(=O)C(F)(F)F)[C@H](O)[C@H](C)O2)C1)C(=O)c1c(OC)cccc1C3=O,Potency,[1],active: 6.31 µM
same,Potency,[2],"inconclusive: 2.06 µM [cytotoxic, full curve, poor fit]"
same,Potency,[3],"inconclusive: 23.1 µM [inhibitor, single point]"
COc1ccc(CCN2CCC(Nc3nc4ccccc4n3Cc3ccc(F)cc3)CC2)cc1,Potency,[7],active: 3.16 µM
same,Potency,[1],active: 31.6 µM
same,Potency,[2],"inconclusive: 36.6 µM [cytotoxic, single point]"
same,Potency,[3],active: 20.6 µM
same,Potency,[4],"inconclusive: 35.5 µM [inhibitor, single point]"
COc1cccc2c1C(=O)c1c(O)c3c(c(O)c1C2=O)C[C@@](O)(C(C)=O)C[C@@H]3O[C@H]1C[C@H](N)[C@H](O)[C@H](C)O1,max response,[12],inconclusive: -36.1%
same,Potency,[6],"inconclusive: 1.12 µM [cytotoxic, full curve]"
same,Potency,[1],active: 1.78 µM
same,Potency,[2],"inconclusive: 1.16 µM [cytotoxic, full curve, poor fit]"
same,Potency,[3],"inconclusive: 16.4 µM [inhibitor, single point]"
COc1cc(-c2ccc(-[n+]3nc(-c4ccccc4)nn3-c3ccc([N+](=O)[O-])cc3)c(OC)c2)ccc1-[n+]1nc(-c2ccccc2)nn1-c1ccc([N+](=O)[O-])cc1,Potency,[1],active: 31.6 µM
same,Potency,[2],active: 9.2 µM
same,Potency,[3],"inconclusive: 29.1 µM [inhibitor, single point]"
CC(=O)[C@]1(O)Cc2c(O)c3c(c(O)c2[C@@H](O[C@H]2C[C@H](N)[C@H](O)[C@H](C)O2)C1)C(=O)c1c(O)cccc1C3=O,Potency,[7],active: 5.62 µM
same,Potency,[1],active: 1.58 µM
same,Potency,[2],"inconclusive: 4.11 µM [cytotoxic, full curve, poor fit] and active: 20.6 µM"
same,Potency,[3],active: 5.17 µM and active: 4.11 µM
NC(N)=NN=C(/C=C/c1ccc([N+](=O)[O-])o1)/C=C/c1ccc([N+](=O)[O-])o1,Potency,[1],active: 10 µM
same,Potency,[2],active: 16.4 µM
same,Potency,[4],"inconclusive: 1.12 µM [inhibitor, full curve, poor fit]"
CC(=O)OCC(=O)[C@@]1(OC(C)=O)[C@@H](C)C[C@H]2[C@@H]3C[C@H](F)C4=CC(=O)C=C[C@]4(C)[C@@]3(F)[C@@H](O)C[C@@]21C,Potency,[1],"inconclusive: 0.0025 µM [cytotoxic, full curve, poor fit]"
same,Potency,[3],"inconclusive: 23.1 µM [inhibitor, single point]"
